About 4,300 (8.3%) of roughly 52,000 compounds were called active. No stated cut-off is given here; in the data, active means survival mostly below about 52% (no sharp cut-off); inactive means mostly above about 56%. The list shows a part of the results.
What follows are compounds tested on DeltatarO mutant (assay: growth inhibition of S. aureus wild type versus tarO mutant, primary screen, teichoic acid synthesis inhibitors, RN4220, OD600 (AID 463173)). Conditions: OD600, 18 h, stronger effect = lower value, screened at 18.75 µg/mL (by protocol).

Row | SMILES | survival
1 | CCN(CC)CCCNC(=O)c1ccc(Cn2c(SCc3ccccc3)nc3cccnc32)cc1 | inactive: 57%
2 | Cn1c(=O)n(Cc2c(F)cccc2Cl)c(=O)c2c1nc1n2CCN1c1ccc(F)cc1 | inactive: 103%
3 | Nc1nn(-c2ccccc2)nc1C(=O)OCc1ccc(Cl)cc1 | active: 44%
4 | COc1ccc(-c2nc3sc(CCNC(=O)C(=O)Nc4cccc(NC(C)=O)c4)c(C)n3n2)cc1 | inactive: 82%
5 | COc1c(C)cccc1C(=O)Nc1ccc(-c2nc3ccccc3s2)c(Cl)c1 | inactive: 68%
6 | COc1ccc(C2=C(N3CCN(c4cccc(C)c4C)CC3)c3ccccc3C2=O)cc1 | inactive: 87%
7 | Cc1ccc(NC(=O)CC2Oc3ccccc3NC2=O)cc1C (configuration not stated) | inactive: 96%
8 | Cc1c(C(=O)NCc2cccc(Cl)c2)sc2nc3n(c(=O)c12)CCCC3 | inactive: 56%
9 | COc1ccc(CCNC(=O)CN2C(=O)COc3ccc(S(=O)(=O)N4CCCC4)cc32)c(OC)c1 | inactive: 84%
10 | COc1ccc(-c2cnnn2-c2ccc(NC(=O)c3ccccc3OC)cc2)cc1 | inactive: 107%
11 | N#Cc1ccc(-c2ccc(F)cc2)n(CC(=O)N2CCC(C(N)=O)CC2)c1=O | inactive: 108%
12 | O=C(Nc1ccccc1Cl)N1CCC(CN2CCCC2)CC1 | inactive: 61%
13 | N#CC(C#N)=Cc1cn(CC(=O)N2CCOCC2)c2ccccc12 | inactive: 100%
14 | CC1=C(c2ccc(F)cc2)S(=O)(=O)N=C1N1CCC(C(=O)NCCc2cccc(C)c2)CC1 | inactive: 85%
15 | COc1cccc(-c2nc(CS(=O)(=O)CC(=O)NCc3cccc(Cl)c3)c(C)o2)c1 | inactive: 72%
16 | Cc1ccc(CSc2ncc(Cl)c(C(=O)Nc3nnc(C)s3)n2)cc1 | active: 32%
17 | CC1=C(C(=O)NCc2ccccc2F)C2(CCCCC2)OC1=O | inactive: 71%
18 | COCCNC(=O)c1nn(-c2ccc(C)cc2)c(=O)c2c1c1ccccc1n2C | inactive: 87%
19 | Cc1ccc(CCNC(=O)C2CCCN(c3nnc(C)c4c(C)n(-c5ccccc5)nc34)C2)cc1 (configuration not stated) | inactive: 80%

Row | SMILES | survival
20 | CCOC(=O)c1c(C)n(-c2ccccc2)c2ccc(OC(=O)COc3ccc(Cl)cc3)cc12 | inactive: 59%
21 | Cc1ccccc1-c1nc(CN2CCC(C(=O)NCc3ccc(F)cc3)CC2)c(C)o1 | inactive: 109%
22 | CC(=O)c1ccc(NC(=O)c2ccc3c(c2)N(Cc2cccc(Cl)c2)C(=O)c2ccccc2S3=O)cc1 (configuration not stated) | inactive: 67%
23 | Cc1c(C(=O)NCc2ccccc2Cl)sc2ncnc(N(C)C3CCCCC3)c12 | inactive: 83%
24 | Cc1ccn2c(Nc3ccc4c(c3)OCCO4)c(-c3ccc(C)o3)nc2c1 | active: 58%
25 | Cc1cc(Nc2ccccc2C)n2nc(Cc3ccc(Cl)cc3)nc2n1 | inactive: 64%
26 | COc1ccc(NC(=O)c2cc3c(s2)-c2c(C)cccc2OC3)cc1Cl | inactive: 80%
27 | CC(Sc1nnc2c(n1)[nH]c1ccccc12)C(=O)NC1CC1 (configuration not stated) | inactive: 60%
28 | COc1ccccc1CNc1ccccc1F | inactive: 70%
29 | COc1ccc(Cn2ccnc2SCC(=O)Nc2nc3ccccc3s2)cc1 | inactive: 84%
30 | COc1cc2ncc3c(-c4ccc(C)cc4)nn(-c4ccc(F)cc4F)c3c2cc1OC | inactive: 86%
31 | CN(C)CCCNc1cc(N2CCN(C3CCCCC3)CC2)c2noc3c2c1C(=O)c1ccccc1-3 | inactive: 51%
32 | Cc1ccc(NC(=O)CN2C(=O)c3cccnc3Oc3ccc(Cl)cc32)cc1 | inactive: 90%
33 | Cc1ccc(S(=O)(=O)c2nnn3c2nc(NCc2ccc4c(c2)OCO4)c2sccc23)cc1C | inactive: 54%
34 | CCc1ccc(NC(=O)CN2C(=O)c3cccc4cccc2c34)cc1 | inactive: 78%
35 | CC1CCc2c(sc(N)c2C(N)=O)C1 (configuration not stated) | inactive: 75%
36 | Cc1ccc(C)c(N2CCN(S(=O)(=O)c3cc(C(=O)Nc4ccc(Oc5ccccc5)cc4)ccc3F)CC2)c1 | inactive: 117%
37 | COc1ccc(Br)cc1CNC(=O)c1cnc2sc(N3CCC(C)CC3)nn2c1=O | inactive: 78%
38 | COc1cc(Cl)c(NC(=O)c2cc3ccccn3n2)c(OC)c1 | inactive: 84%

Row | SMILES | survival
39 | Cc1cccc(NC(=O)C2CCCN2S(=O)(=O)c2ccc3nc(-c4ccccc4)[nH]c3c2)c1 (configuration not stated) | active: 37%
40 | Cc1nc2ccccn2c(=O)c1NC(=O)c1ccc(F)c(F)c1 | inactive: 99%
41 | COc1ccc(C2(CC(=O)O)CCOC(C)(C)C2)cc1 (configuration not stated) | inactive: 97%
42 | Cc1ccc2c(c1)c1c(c(=O)n(-c3ccccc3)c(=O)n1CC(=O)NCC1CCCO1)n2C (configuration not stated) | inactive: 90%
43 | CCOc1cc(C(=O)Nc2ccc(-c3cn4cccnc4n3)cc2)cc(OCC)c1OCC | inactive: 60%
44 | CCNC(=O)C1CCN(S(=O)(=O)c2ccc3c(c2)CCCN3C(C)=O)CC1 | inactive: 99%
45 | CCCN(CCC)c1ccc(C2N=C(N)Nc3nc4ccccc4n32)cc1 (configuration not stated) | inactive: 59%
46 | Cn1c(=O)oc2cc(S(=O)(=O)CCC(=O)N3CCN(c4cccc(Cl)c4)CC3)ccc21 | inactive: 81%
47 | O=C(NCc1ccccc1)c1ccc(NC(=O)N2CC3CCCN3c3ccccc32)cc1 (configuration not stated) | inactive: 63%
48 | Cc1ccc(S(=O)(=O)NC(Cc2ccccc2)C(=O)NN)cc1 (configuration not stated) | inactive: 99%
49 | O=C(Nc1ccc(N2CCCCC2)cc1)c1ccc2c(c1)OCO2 | inactive: 85%
50 | CCCOC(=O)c1cccc(NC(=O)CSc2nnc3cc(C)c4ccccc4n23)c1 | inactive: 100%
51 | CC(=O)c1ccc(NC(=O)c2nc(-c3ccccc3)n(-c3ccc(C)cc3)n2)cc1 | inactive: 60%
52 | O=C(NCc1cccc(Cl)c1)C1CCCN(c2nn3cc(-c4ccc(F)cc4)nc3s2)C1 (configuration not stated) | inactive: 87%
53 | Clc1ccc2nc(-c3ccc(N4CCOCC4)cc3)c(Nc3ccccc3)n2c1 | inactive: 67%
54 | COc1ccccc1NC(=O)Cn1c(=O)oc2cc(S(=O)(=O)NCc3ccccc3)ccc21 | inactive: 74%
55 | Cc1ccc(CNS(=O)(=O)c2c(C)nc3sc(C)cn3c2=O)cc1 | inactive: 115%
56 | Cc1ccc(Cl)cc1NC(=O)CN1C(=O)c2ccccc2Sc2ncccc21 | inactive: 95%
57 | CCc1ccc(-c2nc(CS(=O)CC(=O)NCc3ccc(F)cc3)c(C)o2)cc1 (configuration not stated) | inactive: 100%
